Results on 75 compounds are retold here after the supplement of paper PMC6135742.

The structures appear in SMILES notation. Where a name gives a salt, the structure may show the parent alone. ± gives the standard deviation of the averaged measurements. Whole data set: some 2,600 compounds, median “total cell number (DAPI+ nuclei) relative to DMSO vehicle control” near -1.4, cut for the lowest 2% near -23. This is one part of the list.

In the test the test system is jimpy (Plp1 jimpy) mouse iPSC-derived oligodendrocyte progenitor cells. The test is described as follows: total cell number (DAPI+ nuclei) relative to DMSO vehicle control (SDs above negative control mean); higher = more surviving cells. Particulars: 10 µM; 3 days.
Compound `CC(=O)O[C@]1(C(C)=O)CC[C@H]2[C@@H]3C=C(Cl)C4=CC(=O)[C@@H]5C[C@@H]5[C@]4(C)[C@H]3CC[C@@]21C` [Cyproterone Acetate] registered a total cell number of 6.81.

As for `CC(=O)O[C@]1(C(C)=O)CC[C@H]2[C@@H]3C=C(Cl)C4=CC(=O)[C@@H]5C[C@@H]5[C@]4(C)[C@H]3CC[C@@]21C` [Cyproterone acetate], the total cell number is -0.554.

`CC(C)c1cc(-c2n[nH]c(=O)n2-c2ccc3c(ccn3C)c2)c(O)cc1O` [Ganetespib (STA-9090)] showed a total cell number of -25.4.

For `CC1(C)[C@H](C(=O)O)N2C(=O)C[C@H]2S1(=O)=O` [Sulbactam], the total cell number is -0.259.

Consider `CC1(C)[C@H](C(=O)O)N2C(=O)C[C@H]2S1(=O)=O` [Sulbactam sodium], for which the total cell number is 1.1.

As for `Nc1ccc(N2C(=O)c3ccccc3C2=O)c(Cl)c1` [N-(4-Amino-2-chlorophenyl)phthalimide], the total cell number was determined as 0.385.

In the case of `CN1CCc2cc(Cl)c(O)cc2[C@@H](c2ccccc2)C1`, the total cell number was -0.705.

As to `Cc1ncc(CO)c(CO)c1O` [Pyridoxine HCl], the total cell number worked out at 0.837.

On to `C#Cc1cccc(Nc2ncnc3cc4c(cc23)OCCOCCOCCO4)c1` [Icotinib], for which the total cell number was -6.11.

Take `Cc1ccc(NCCCc2ccccc2)c(N)c1`: the total cell number is -11.8.

As to `CCc1c(C)[nH]c2c1C(=O)C(CN1CCOCC1)CC2` (stereo not given) [Molindone hydrochloride], the total cell number is -1.59.

As for `c1ccc(-c2[nH]ncc2-c2ccnc3ccccc23)nc1`, the total cell number was -2.66.

In turn, `CC1=C(C(=O)O)N2C(=O)[C@@H](NC(=O)[C@H](N)C3=CCC=CC3)[C@H]2SC1` [Cephradine] had a total cell number of -1.61.

The compound `CC1=C(/C=C/C(C)=C/C=C/C(C)=C/C(=O)O)C(C)(C)CCC1` [Tretinoin] had a total cell number of -1.01.

`CC1=C(/C=C/C(C)=C/C=C/C(C)=C/C(=O)O)C(C)(C)CCC1` [Retinoic acid] showed a total cell number of -0.79.

Compound `C[C@]12CC[C@H](O)CC1=CC[C@@H]1[C@@H]2CC[C@]2(C)C(n3cnc4ccccc43)=CC[C@@H]12` [Galeterone] came in with a total cell number of 1.94.

The compound `NC(=O)C1=CN(C2OC(COP(=O)(O)OP(=O)(O)OC[C@H]3O[C@@H](n4cnc5c(N)ncnc54)C(OP(=O)(O)O)[C@H]3O)C(O)C2O)C=CC1` (stereo not given in full) [NADPH tetrasodium] gave a total cell number of -1.06.

In turn, `CC(O)C(O)[C@H]1CNc2nc(N)[nH]c(=O)c2N1` (stereo partly drawn) [(6R)-5,6,7,8-Tetrahydro-L-biopterin hydrochloride] registered a total cell number of -1.76.

With `CNS(=O)(=O)CCc1ccc2[nH]cc(C3CCN(C)CC3)c2c1` [Naratriptan hydrochloride], the total cell number was -1.55.

`CNS(=O)(=O)CCc1ccc2[nH]cc(C3CCN(C)CC3)c2c1` [Naratriptan] registered a total cell number of 0.491.

`O=C(O)[C@H]1NCCC[C@H]1C(=O)O` (racemic) [(±)-cis-Piperidine-2,3-dicarboxylic acid] showed a total cell number of 1.76.

Regarding `CC(=O)Oc1ccccc1C(=O)O` [Aspirin], the total cell number was -0.191.

Turning to `CC(=O)Oc1ccccc1C(=O)O` [Acetylsalicylic acid], the total cell number was -1.06.

`N=C(N)NS(=O)(=O)c1ccc(N)cc1` [Sulfaguanidine] displayed a total cell number of 1.55.

`COc1ccc2ccc(=O)oc2c1CC=C(C)C` [Osthole] had a total cell number of -1.22.

For `Cc1ccc(NC(=O)c2ccc(CN3CCN(C)CC3)cc2)cc1Nc1nccc(-c2cccnc2)n1` [Imatinib (STI571)], the total cell number was -7.2.

For the compound `Cc1ccc(NC(=O)c2ccc(CN3CCN(C)CC3)cc2)cc1Nc1nccc(-c2cccnc2)n1` [Imatinib Mesylate (STI571)], the total cell number is -14.

Regarding `Cc1nn(-c2ccccc2)c(C)c1C=NN1CCN(Cc2ccccc2)CC1`, the total cell number came to 3.84 ± 1.1.

Compound `Oc1cc2c(c(Cl)c1O)CCNCC2c1ccccc1` (racemic) [(±)-6-Chloro-PB hydrobromide] gave a total cell number of -2.06.

In the case of `CC(C)C(=O)Oc1ccc(CO)cc1[C@H](CCN(C(C)C)C(C)C)c1ccccc1` [Fesoterodine Fumarate], the total cell number was -3.56.

Take `O=C(O)C(=O)O.[NH-][C@@H]1CCCC[C@H]1[NH-].[Pt+2]` [Oxaliplatin]: the total cell number is -23.4.

`CCc1cc2c(cc1N1CCC(N3CCOCC3)CC1)C(C)(C)c1[nH]c3cc(C#N)ccc3c1C2=O` gave a total cell number of -4.28.

On to `CCc1c2c(nc3ccc(O)cc13)-c1cc3c(c(=O)n1C2)COC(=O)[C@]3(O)CC`, for which the total cell number was -3.4.

In turn, `Fc1ccc(CN(C2=NCCN2)c2c(Cl)cccc2Cl)cc1` [IMID-4F hydrochloride] displayed a total cell number of -6.12.

For `CCOC(=O)O[C@]1(C(=O)OCCl)CC[C@H]2[C@@H]3CCC4=CC(=O)C=C[C@]4(C)[C@H]3[C@@H](O)C[C@@]21C` [Loteprednol etabonate], the total cell number was -1.9.

In turn, `O=C(O)CNC(=O)C(CS)Cc1ccccc1` (racemic) [DL-Thiorphan] registered a total cell number of -1.82.

`Clc1ccc(C(Cn2ccnc2)OCc2ccsc2Cl)c(Cl)c1` (stereo not given) [Tioconazole] came in with a total cell number of -1.08.

Compound `COc1cc2c(c(OC)c1OC)-c1c(cc3c(c1OC)OCO3)CC(C)C(C)C2` (stereo not given) [Schisandrin B (Sch B)] returned a total cell number of 0.739.

Compound `c1cnc(N2CCN(Cc3ccc4c(c3)OCO4)CC2)nc1` [Piribedil maleate] had a total cell number of 0.73.

Take `C[C@](N)(Cc1ccc(O)c(O)c1)C(=O)O` [L-alpha-Methyl DOPA]: the total cell number is -1.22.

Turning to `Cc1c(C(=O)NN2CCCCC2)nn(-c2ccc(Cl)cc2Cl)c1-c1ccc(Cl)cc1` [Rimonabant], the total cell number was -2.91.

Turning to `C[C@H]1c2cccc(O)c2C(=O)C2=C(O)[C@]3(O)C(=O)C(C(N)=O)=C(O)[C@@H](N(C)C)[C@@H]3[C@@H](O)[C@@H]21` [Doxycycline HCl], the total cell number is 1.84.

`C[C@H]1c2cccc(O)c2C(=O)C2=C(O)[C@]3(O)C(=O)C(C(N)=O)=C(O)[C@@H](N(C)C)[C@@H]3[C@@H](O)[C@@H]21` [Doxycycline Hyclate] gave a total cell number of 4.54.

For the compound `C[C@H]1c2cccc(O)c2C(=O)C2=C(O)[C@]3(O)C(=O)C(C(N)=O)=C(O)[C@@H](N(C)C)[C@@H]3[C@@H](O)[C@@H]21` [Doxycycline hydrochloride], the total cell number came to 2.82.

On to `COc1cc2c(cc1OC)CC(=O)N(CCCN(C)C[C@H]1Cc3cc(OC)c(OC)cc31)CC2` [Ivabradine HCl], for which the total cell number was -0.509.

Consider `CN1CC(=O)N2[C@H](c3ccc4c(c3)OCO4)c3[nH]c4ccccc4c3C[C@@H]2C1=O` [Tadalafil], for which the total cell number was -0.473.

As for `CCN(C(=O)c1c(O)c2c(Cl)cccc2n(C)c1=O)c1ccccc1` [Laquinimod], the total cell number was -1.22.

With `CCc1nc(N)nc(N)c1-c1ccc(Cl)cc1` [Pyrimethamine], the total cell number was 14.7.

For the compound `Cc1c(C(=O)NN2CCCCC2)nn(-c2ccc(Cl)cc2Cl)c1-c1ccc(I)cc1`, the total cell number is -7.02.

In turn, `CC(C)NCC(O)COc1ccc(CCOCC2CC2)cc1` (stereo not given) [Betaxolol] had a total cell number of 4.24.

`CC(C)NCC(O)COc1ccc(CCOCC2CC2)cc1` (stereo not given) [Betaxolol hydrochloride] yielded a total cell number of -1.49.

`CCCN1CCCC[C@H]1C(=O)Nc1c(C)cccc1C` [Ropivacaine HCl] came in with a total cell number of -0.0603.

In turn, `Cc1ccc(S(=O)(=O)N[C@@H](Cc2ccccc2)C(=O)CCl)cc1` [N-p-Tosyl-L-phenylalanine chloromethyl ketone] yielded a total cell number of -0.79.

Turning to `CC(C)(OCc1nn(Cc2ccccc2)c2ccccc12)C(=O)O` [Bindarit], the total cell number is -1.02.

`Nc1n[n+]([O-])c2ccccc2[n+]1[O-]` [Tirapazamine] displayed a total cell number of -6.5.

Consider `Cc1cccc(-c2[nH]c(C(C)(C)C)nc2-c2ccc3c(c2)OCO3)n1`, for which the total cell number was -9.25.

`CC(NC(=O)c1ccccc1/N=C/c1c(O)ccc2ccccc12)c1ccccc1` (stereo not given) [Sirtinol] gave a total cell number of -0.73.

Turning to `COc1cc(OC2CCN(C)CC2)ccc1Nc1ncc2c(n1)n(C1CCCC1)c(=O)n2C`, the total cell number is -7.07.

In turn, `C1COC(NC(C2CC2)C2CC2)=N1` [Rilmenidine hemifumarate] gave a total cell number of -1.55.

With `Cn1c(=O)[nH]c2ncn(C)c2c1=O` [1,7-Dimethylxanthine], the total cell number is -1.33.

For `C#CCN[C@@H]1CCc2ccccc21` [Rasagiline Mesylate], the total cell number amounted to 1.16.

Regarding `COc1ccc(NS(=O)(=O)c2sc3ccc(Cl)cc3c2C)cc1N1CCNCC1`, the total cell number is -3.32.

As for `CCCn1c(=O)[nH]c(=O)c2[nH]cnc21` [3-n-Propylxanthine], the total cell number is -0.654.

In the case of `C[N+](C)(C)CC=O` [Betaine aldehyde chloride], the total cell number was -1.57.

As for `OC[C@H]1O[C@@H](n2cnc3c(NC4CCCC4)ncnc32)[C@H](O)[C@@H]1O` [N6-Cyclopentyladenosine], the total cell number was -0.867.

As for `CCOc1nc2cccc(C(=O)OCc3oc(=O)oc3C)c2n1Cc1ccc(-c2ccccc2-c2noc(=O)[nH]2)cc1` [Azilsartan Medoxomil], the total cell number was -0.583.

With `COc1ccccc1Oc1c(NS(=O)(=O)c2ccc(C(C)(C)C)cc2)nc(-c2ncccn2)nc1OCCO` [Bosentan Hydrate], the total cell number was -0.436.

`C[S+]([O-])c1ccc(-c2nc(-c3ccc(F)cc3)c(-c3ccncc3)[nH]2)cc1` (stereo not given) had a total cell number of -13.3.

`O=C(/C=C/c1ccc(O)cc1)CC(=O)/C=C/c1ccc(O)cc1` [Bisdemethoxycurcumin] yielded a total cell number of 0.0609.

In turn, `COc1cc2c(Oc3ccc(NC(=O)C4(C(=O)Nc5ccc(F)cc5)CC4)cc3F)ccnc2cc1OCCCN1CCOCC1` showed a total cell number of -27.

`O=C(O)Cc1c[nH]c2ccc(O)cc12` [5-Hydroxyindolacetic acid] showed a total cell number of -1.23.

As for `CCN(c1nc(N)c(C(=O)NC(=N)N)nc1Cl)C(C)C` [5-(N-Ethyl-N-isopropyl)amiloride], the total cell number was -4.19.

The compound `CC(C)[N+](C)(CCOC(=O)C1c2ccccc2Oc2ccccc21)C(C)C` [Propantheline bromide] showed a total cell number of 1.22.

As for `CN1CCC[C@@H]1Cc1c[nH]c2ccc(CCS(=O)(=O)c3ccccc3)cc12` [Eletriptan hydrobromide], the total cell number is -0.403.

Turning to `CN1CCC[C@@H]1Cc1c[nH]c2ccc(CCS(=O)(=O)c3ccccc3)cc12` [Eletriptan HBr], the total cell number is -2.64.
